Measurements published in patent US20230086069A1 (SYSTIMMUNE, published 2023).

How the values were obtained:
His-tagged human CD19 = molecular target: T1, His-tagged human CD19 (human, UniProt P15391 20-291, limits assumed); experiment: BLI (Octet), GNC antibody on AHC sensor, His-tagged human CD19 as analyte, 1:1 fit
T1 construct: not shown: His tag
T1 sequence (looked up): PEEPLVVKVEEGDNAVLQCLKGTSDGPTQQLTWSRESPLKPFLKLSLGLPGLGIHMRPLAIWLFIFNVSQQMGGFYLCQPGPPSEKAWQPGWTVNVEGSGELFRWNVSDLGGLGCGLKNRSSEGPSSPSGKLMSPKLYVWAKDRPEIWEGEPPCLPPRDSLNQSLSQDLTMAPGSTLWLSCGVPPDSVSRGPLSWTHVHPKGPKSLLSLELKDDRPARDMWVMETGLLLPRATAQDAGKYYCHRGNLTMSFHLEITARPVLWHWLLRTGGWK
Description: To determine the binding affinity of the hexa and pentaGNC antibodies to human CD19, the Octet binding assay was used. The GNC antibodies were loaded via AHC sensors at 10 ug/ml and bound to a serial dilution (1:2.5 dilutions starting from the highest concentration of 200 nM) or a single 100-nM concentration of His-tagged human CD19.

[1] = molecular target: T2, human CD19 on cells (CD20+ B cells of human PBMC; Raji lymphoma cells) (human, UniProt P15391 20-556); experiment: cell-based or functional assay
T2 sequence (looked up): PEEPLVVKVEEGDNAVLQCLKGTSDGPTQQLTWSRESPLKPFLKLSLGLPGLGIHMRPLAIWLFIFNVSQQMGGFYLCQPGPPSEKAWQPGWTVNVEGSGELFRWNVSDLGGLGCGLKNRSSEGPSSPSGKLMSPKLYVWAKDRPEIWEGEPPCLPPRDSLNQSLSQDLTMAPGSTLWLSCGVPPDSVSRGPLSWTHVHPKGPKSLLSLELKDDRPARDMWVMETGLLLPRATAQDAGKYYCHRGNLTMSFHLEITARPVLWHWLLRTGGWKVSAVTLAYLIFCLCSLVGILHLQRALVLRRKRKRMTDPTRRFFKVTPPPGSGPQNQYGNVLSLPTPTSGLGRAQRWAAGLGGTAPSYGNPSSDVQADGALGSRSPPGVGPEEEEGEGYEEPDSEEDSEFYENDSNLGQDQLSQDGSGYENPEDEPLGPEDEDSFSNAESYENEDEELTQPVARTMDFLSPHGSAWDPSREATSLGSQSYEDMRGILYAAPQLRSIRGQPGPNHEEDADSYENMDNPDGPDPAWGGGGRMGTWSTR

Kd (His-tagged human CD19): 4.54 nM
B1: SI-55H11 (hexaGNC antibody, humanized CD19 binding domain H4 at D6) (other)
heavy: EIVLTQSPSTLSVSPGERATFSCRASQSIGTNIHWYQQKPGKPPRLLIKYASESISGIPDRFSGSGSGTEFTLTISSVQSEDFAVYYCQQNNNWPTTFGPGTKLTVLGGGGSGGGGSGGGGSGGGGSQVQLQQSGPGLVKPSETLSITCTVSGFSLTNYGVHWIRQAPGKGLEWLGVIWSGGNTDYNTPFTSRFTITKDNSKNQVYFKLRSVRADDTAIYYCARALTYYDYEFAYWGQGTLVTVSSGGGGSGGGGSGGGGSGGGGSEVQLVESGGGLVQPGGSLRLSCAASGFTISTNAMSWVRQAPGKCLEWIGVITGRDITYYASWAKGRFTISRDNSKNTLYLQMNSLRAEDTAVYYCARDGGSSAITSNNIWGQGTLVTVSSASTKGPSVFPLAPSSKSTSGGTAALGCLVKDYFPEPVTVSWNSGALTSGVHTFPAVLQSSGLYSLSSVVTVPSSSLGTQTYICNVNHKPSNTKVDKRV[omitted - human IgG1 Fc with changes]GGGGSGGGGSEVQLLESGGGLVQPGGSLRLSCAASGFSFSSGYDMCWVRQAPGKGLEWIACIAAGSAGITYDANWAKGRFTISRDNSKNTLYLQMNSLRAEDTAVYYCARSAFSFDYAMDLWGQGTLVTVSSGGGGSGGGGSGGGGSGGGGSDIQMTQSPSTLSASVGDRVTITCQASQSISSHLNWYQQKPGKAPKLLIYKASTLASGVPSRFSGSGSGTEFTLTISSLQPDDFATYYCQQGYSWGNVDNVFGGGTKVEIKGGGGSGGGGSGRSLVESGGGLVQPGGSLRLSCTASGFTISSYHMQWVRQAPGKGLEYIGTISSGGNVYYASSARGRFTISRPSSKNTVDLQMNSLRAEDTAVYYCARDSGYSDPMWGQGTLVTVSSGGGGSGGGGSGGGGSGGGGSDVVMTQSPSSVSASVGDRVTITCQASQNIRTYLSWYQQKPGKAPKLLIYAAANLASGVPSRFSGSGSGTDFTLTISDLEPGDAATYYCQSTYLGTDYVGGAFGGGTKVEIK
light: ENVLTQSPASLSASPGERVTITCSASSSVSYMHWYQQKPGQAPKLWIYDTSKLASGVPSRFSGSGSGNDHTLTISSMEPEDFATYYCFQGSVYPFTFGQGTKVTVLGGGGSGGGGSGGGGSGGGGSQVTLKESGPGLVQPGQTLSLTCAFSGFSLSTSGMGVGWIRQPPGKGLEWLAHIWWDDDKRYNPALKSRLTISKDTSKNQVYLQMNSLDAEDTAVYYCARMELWSYYFDYWGQGTLVTVSSGGGGSGGGGSDVVMTQSPSTLSASVGDRVTINCQASESISSWLAWYQQKPGKAPKLLIYEASKLASGVPSRFSGSGSGTEFTLTISSLQPDDFATYYCQGYFYFISRTYVNSFGCGTKVEIKRTVAAPSVFIFPPSDEQLKSGTASVVCLLNNFYPREAKVQWKVDNALQSGNSQESVTEQDSKDSTYSLSSTLTLSKADYEKHKVYACEVTHQGLSSPVTKSFNRGECGGGGSGGGGSGGGGSQSALTQPASVSGSPGQSITISCTGTSSDVGGYNFVSWYQQHPGKAPKLMIYDVSDRPSGVSDRFSGSKSGNTASLIISGLQADDEADYYCSSYGSSSTHVIFGGGTKVTVLGGGGSGGGGSGGGGSGGGGSQVQLQESGGGLVKPGGSLSLSCAASGFTFSSYWMSWVRQAPGKGLEWVANINRDGSASYYVDSVKGRFTISRDDAKNSLYLQMNSLRAEDTAVYYCARDRGVGYFDLWGRGTLVTVSS
EC50 (pM), re-directed T cell cytotoxicity: cytolysis of Raji cells by human CD8 T cells [1]: 2.5 pM
